{"source": "PubChem BioAssay AID686970", "about": "(National Center for Advancing Translational Sciences (NCATS), 2013)", "note": "In all, about 360,000 compounds went through this assay and about 6,000 (1.7%) were called active. Inconclusive means that the source gave no clear call. Such entries were picked first, then a sample of the others. Calls come from the whole dose curve; as a rule, active = well fitted cell-killing curve with a large enough effect; inconclusive = small, poorly fitted or top-dose-only effect, or effect the other way; inactive = flat fitted curve, though single readings scatter. No potency is given beside an inconclusive call; the fits are too rough. Potency is the fitted concentration of half-maximal effect; tags give direction and shape of the fitted curve.", "data": [{"assay": "qHTS for induction of synthetic lethality in tumor cells producing 2HG: qHTS for the HT-1080-NT fibrosarcoma cell line;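 note: NT is the 2HG producing partner of a matched IDH1 knockdown line; nearly all actives have a fitted effect of over 55% in size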;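 for activity, negative = less viability: 0% = DMSO-treated cells and -100% = media-only wells without cells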", "settings": "HT-1080-NT fibrosarcoma viability, CellTiter-Glo ATP luminescence, 48 h; activity, negative = less viability: at 46.1 µM (top of the series) unless noted", "method_in_brief": "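HT-1080-NT; 750 cells/well; 5% FBS RPMI; 48 h compound, 37 degrees C; CellTiter-Glo luminescence; curve fitting and curve-class assignment.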", "values": [{"smiles": "Cc1occc(=O)c1OC(=O)Nc1ccc(Cl)c(Cl)c1", "Potency": "active: 23.1 µM"}, {"smiles": "COc1ccc(NC(=O)c2cc(-c3cc(Cl)ccc3C)n[nH]2)c(OC)c1", "Potency": "inconclusive [cytotoxic, single point]"}, {"smiles": "COc1cc2c(=O)n(-c3ccc(C)cc3)c(=O)n(CC(=O)c3ccc4c(c3)OCO4)c2cc1OC", "activity, negative = less viability": "inconclusive: 23.5%"}, {"smiles": "COc1ccc(C(=O)/C=C/c2ccccc2C(F)(F)F)cc1", "Potency": "inconclusive [cytotoxic, single point]"}, {"smiles": "COc1cc(OC)cc(C(=O)Nc2ccc(-c3nc4ccccc4o3)c(O)c2)c1", "Potency": "inconclusive [cytotoxic, single point]"}, {"smiles": "O=S(=O)(Cc1noc(-c2ccc(Cl)cc2)n1)Cc1ccco1", "activity, negative = less viability": "inactive: -7.88%"}, {"smiles": "CCOc1ccccc1Nc1nc2ccccc2n2cnnc12", "activity, negative = less viability": "inactive: 11.9%"}, {"smiles": "COc1cc(/C=C2\\SC(=O)N(CC(=O)Nc3ccccc3F)C2=O)cc(Cl)c1O", "Potency": "inconclusive [cytotoxic, full curve, poor fit]"}, {"smiles": "Cn1cnc(S(=O)(=O)N2CCN(c3ccc(F)cc3)CC2)c1", "activity, negative = less viability": "inactive: -3.29%"}, {"smiles": "O=C(NCc1ccccn1)C1CCN(Cc2cnn(-c3ccccc3)c2-n2cccc2)CC1", "activity, negative = less viability": "inconclusive: 8.1%"}, {"smiles": "O=C1OC[C@@H]2CCCN2C(=O)[C@@H](CC(=O)N(CCO)Cc2ccccc2)C/C=C\\CC[C@H]1Cc1ccc(F)cc1", "activity, negative = less viability": "inactive: 0%"}, {"smiles": "COc1ccc(C(=O)C2CCCN(Cc3cccn3-c3ccccn3)C2)c(OC)c1", "note": "(stereo not given)", "Potency": "active: 6.51 µM"}, {"smiles": "Cc1ccc(S(=O)(=O)NCCC(=O)Nc2ccc(Cl)c(Cl)c2)cc1C", "activity, negative = less viability": "inactive: 1.89%"}, {"smiles": "CC1C(=O)Nc2ccccc2N1C(=O)C1CC1", "note": "(stereo not given)", "activity, negative = less viability": "inactive: 12.4%"}, {"smiles": "Cc1ccc(S(=O)(=O)N2C[C@H]3[C@H]4C(=O)N(C)C(=O)[C@H]4CC(=O)[C@H]3[C@@H]2c2ccccc2F)cc1", "Potency": "inconclusive [rising, full curve]"}, {"smiles": "Fc1ccc(/C=N/Nc2nnnn2-c2ccccc2)cc1", "Potency": "inconclusive [cytotoxic, single point]"}, {"smiles": "CCOc1ccccc1N1CC(C(=O)NCCC2=CCCCC2)CC1=O", "note": "(stereo not given)", "activity, negative = less viability": "inactive: -0.154%"}, {"smiles": "O=C1CN(C(=O)COC(=O)c2ccccc2O)c2ccccc2N1", "Potency": "inconclusive [rising, partial curve]"}, {"smiles": "CC(C)Cc1ccc(/C=C/C(=O)NC2CC2)cc1", "activity, negative = less viability": "inactive: 1.54%"}, {"smiles": "C/C(=N\\NC(=O)OC(C)(C)C)c1cccc([N+](=O)[O-])c1", "activity, negative = less viability": "inactive: 5.32%"}, {"smiles": "C[N+]1(CC2COC3(CCCCC3)O2)CCCC1", "note": "(stereo not given)", "activity, negative = less viability": "inactive: 3.41%"}, {"smiles": "CC(C)(C)n1nnnc1C(c1ccccc1)N1CCN(c2ccccn2)CC1", "note": "(stereo not given)", "activity, negative = less viability": "inactive: 0.241%"}, {"smiles": "COc1ccc(C(=O)c2ccc(Cl)c([N+](=O)[O-])c2)cc1", "Potency": "inconclusive [cytotoxic, full curve]"}, {"smiles": "CCOC(=O)C1CCCN(C(c2ccccn2)c2c(C)[nH]c3ccccc23)C1", "note": "(stereo not given)", "activity, negative = less viability": "inactive: -6.08%"}, {"smiles": "COc1cc(C(C[N+](=O)[O-])c2c(-c3ccccc3)cc3ccccn23)cc(OC)c1OC", "note": "(stereo not given)", "Potency": "inconclusive [cytotoxic, single point]"}, {"smiles": "O=c1c2ccccc2nc(/C=C/c2ccc([N+](=O)[O-])o2)n1CCCO", "Potency": "active: 2.91 µM"}, {"smiles": "Cc1cc(C)c(C)c(S(=O)(=O)NC2CCN(Cc3ccccc3)CC2)c1C", "Potency": "inconclusive [cytotoxic, single point]"}, {"smiles": "O=C1CC(=Nc2ccccc2)NN1c1ccccc1", "Potency": "active: 18.4 µM"}, {"smiles": "Cc1nc(C(=O)NNC(=O)c2c(-c3c(Cl)cccc3Cl)noc2C)cs1", "Potency": "inconclusive [cytotoxic, single point]"}, {"smiles": "COc1ccc(N(CC(=O)NCCOc2ccccc2)S(=O)(=O)c2ccc(C)cc2)cc1", "activity, negative = less viability": "inactive: -3.56%"}, {"smiles": "CCc1ccc(N(C(=O)c2csnn2)C(C(=O)NC(C)(C)C)c2cccnc2)cc1", "note": "(stereo not given)", "activity, negative = less viability": "inactive: -4.58%"}, {"smiles": "COc1ccc(O)c(/C=N/Nc2nc(C)cc(-c3ccccc3)n2)c1", "Potency": "inconclusive [cytotoxic, partial curve]"}, {"smiles": "COc1ccccc1CCNC(=O)c1cc(C2CC2)nc2c1cnn2C(C)C", "activity, negative = less viability": "inactive: 4.02%"}, {"smiles": "COc1cc(C2c3cc4c(cc3OC(NNC(N)=O)C2C)OCO4)cc(OC)c1OC", "note": "(stereo not given)", "Potency": "active: 1.3 µM"}, {"smiles": "CCN(CC)S(=O)(=O)c1cccc(C(=O)N[C@H](C(=O)NNC(=O)c2ccccc2)C(C)C)c1", "Potency": "inconclusive [rising, single point]"}, {"smiles": "CC(=O)N(C(C)=O)C1=C(C#N)C2(CCCCC2)Cc2ccccc21", "Potency": "inconclusive [cytotoxic, single point]"}, {"smiles": "Cc1ccccc1N1CCN(C(=O)c2cc(C3CC3)nn2-c2ccccc2)CC1", "Potency": "inconclusive [cytotoxic, single point]"}, {"smiles": "COc1ccc(NC(=O)CSc2ccc(F)cc2)cc1S(=O)(=O)N1CCCCC1", "activity, negative = less viability": "inactive: -5.89%"}, {"smiles": "c1ccc2c(c1)[nH]c1c(N3CCCC3)ncnc12", "activity, negative = less viability": "inactive: -11.8%"}, {"smiles": "COc1ccc(C(C(=O)NC2CCCCC2)N(C(=O)CCl)c2ccc(Cl)cc2)cc1", "note": "(stereo not given)", "Potency": "active: 2.31 µM"}, {"smiles": "OC[C@@H]1CN(Cc2cccc3ccccc23)C[C@H](n2cnc3c(NCc4ccco4)ncnc32)O1", "Potency": "inconclusive [cytotoxic, partial curve]"}, {"smiles": "CCc1ccc2nc(N=C(N)N)nc(C)c2c1", "Potency": "inconclusive [cytotoxic, partial curve]"}, {"smiles": "NCCCC[C@H]1CNC(=S)N1CCc1cccc(F)c1", "activity, negative = less viability": "inactive: -19.4%"}, {"smiles": "Cc1nn2c(NCCCN3CCOCC3)c3c(nc2c1-c1ccccc1)CCC3", "activity, negative = less viability": "inactive: -9.66%"}, {"smiles": "O=C(NCc1ccccc1)C1C(=O)Nc2ccccc2C(=O)N1c1ccc2c(c1)OCCO2", "note": "(stereo not given)", "activity, negative = less viability": "inactive: 4.67%"}, {"smiles": "CC(C)(C)c1cc(C(=O)Nc2ccccc2)ccn1", "activity, negative = less viability": "inactive: 0.402%"}, {"smiles": "N#CC1=C(N)NC(SCc2ccc(Cl)cc2)=C(C#N)C12CCCCC2", "Potency": "inconclusive [cytotoxic, single point]"}, {"smiles": "O=C(Nc1nc2cc3c(cc2s1)OCO3)c1ccco1", "Potency": "inconclusive [cytotoxic, single point]"}, {"smiles": "Cn1cc(CNCc2ccc(OC(F)(F)F)cc2)c(-c2ccc3c(c2)OCCO3)n1", "Potency": "active: 20.6 µM"}, {"smiles": "COc1ccc(-c2nc(NC(=O)C3CC(=O)N(c4ccc5c(c4)OCCO5)C3)sc2C)cc1", "note": "(stereo not given)", "Potency": "inconclusive [cytotoxic, full curve, poor fit]"}, {"smiles": "O=C(O)CSc1cc(NS(=O)(=O)c2cccc([N+](=O)[O-])c2)c2ccccc2c1O", "Potency": "active: 13 µM"}, {"smiles": "CN1C(=O)[C@H]2[C@@H](c3ccc(C(F)(F)F)cc3)N[C@]3(CCCN(Cc4ccc(Cl)cc4)C3=O)[C@H]2C1=O", "activity, negative = less viability": "inactive: 10.5%"}, {"smiles": "CSc1ccccc1NC(=O)CN(C)C(=O)C1CCN(C(=O)Nc2ccccc2)CC1", "activity, negative = less viability": "inactive: 10.3%"}, {"smiles": "CCn1c(O)c(C=NCc2ccccc2)sc1=S", "activity, negative = less viability": "inactive: -0.978%"}, {"smiles": "COc1cccc(Nc2nc(-c3cccs3)nc3ccccc23)c1", "Potency": "active: 16.4 µM"}, {"smiles": "Cc1cccc(COCC(Cc2ccccc2)N2CCN(C(=O)c3cccc(C)c3)CCC2=O)c1", "note": "(stereo not given)", "activity, negative = less viability": "inactive: -6.38%"}, {"smiles": "C(=C\\c1ccccc1)/CN1CCN(C(c2cccs2)c2nnnn2Cc2ccccc2)CC1", "note": "(stereo not given)", "Potency": "inconclusive [cytotoxic, single point]"}, {"smiles": "Cc1ccc(O)c(NC2=C(Cl)C(=O)N(Cc3ccccc3)C2=O)c1", "Potency": "inconclusive [cytotoxic, single point]"}, {"smiles": "COc1ccc(C(=O)NN(C)c2nc(-c3ccccc3)cc(C)c2S(C)(=O)=O)cc1", "activity, negative = less viability": "inactive: -2.05%"}, {"smiles": "CCCCCC(=O)Nc1nc2ccccc2[nH]1", "Potency": "inconclusive [cytotoxic, partial curve, poor fit]"}, {"smiles": "N#Cc1nc(-c2ccc(OCc3ccccc3)cc2)oc1NCc1cccnc1", "activity, negative = less viability": "inactive: -13.6%"}, {"smiles": "COc1ccc(C(=O)N/C(=C\\c2ccco2)C(=O)NCc2ccco2)cc1", "Potency": "inconclusive [rising, single point]"}, {"smiles": "COc1ccc(NC(=O)CN(C)C(=O)c2cn(-c3ccccc3)nc2-c2ccc(Cl)cc2)cc1", "Potency": "inconclusive [cytotoxic, single point]"}, {"smiles": "Cc1ccc(C2(C(=O)N3CCC(n4nc(-c5ccccc5)oc4=O)CC3)CC2)cc1", "activity, negative = less viability": "inactive: 0.0517%"}, {"smiles": "CCCCCNC(=O)C(c1ccc(C(F)(F)F)cc1)n1c(=O)c(-c2ccco2)nc2ccccc21", "note": "(stereo not given)", "activity, negative = less viability": "inconclusive: -31.4% [cytotoxic]"}, {"smiles": "Cc1ccccc1-n1nc(C)c2cc(C(=O)N3CCN(S(=O)(=O)c4ccc(F)cc4)CC3)sc21", "activity, negative = less viability": "inactive: -0.695%"}, {"smiles": "CCn1cc2nc(SCC(=O)Nc3ccc(OC)cc3OC)n(Cc3ccc(OC)cc3)c(=O)c2n1", "Potency": "active: 3.66 µM"}, {"smiles": "CN(C)C(=O)CCc1ccc2c3c([nH]c2c1)[C@]1(CCc2ccccc2)[C@@H](C(=O)N2CCCCC2)C[C@H](CC(=O)NCCCn2ccnc2)C(=O)N1CC3", "activity, negative = less viability": "inactive: 3.29%"}, {"smiles": "CC(C)CC(=O)NC(=S)Nc1ccc(N2CCCC2)c(Cl)c1", "Potency": "inconclusive [cytotoxic, single point]"}, {"smiles": "COc1ccc2c(c1)C1=C(CC2)C(c2ccc(C)cc2)NC(=S)N1", "note": "(stereo not given)", "Potency": "inconclusive [cytotoxic, single point]"}, {"smiles": "CC(=O)Nc1cccc(C(=O)N/N=C/c2ccc(F)cc2)c1", "Potency": "inconclusive [rising, partial curve]"}, {"smiles": "CC(=O)N1CCCc2ccc(NS(=O)(=O)c3ccc(C)cc3)cc21", "activity, negative = less viability": "inactive: -21.4%"}, {"smiles": "CC(C)CNC(=S)NNC(=O)c1csc2ccccc12", "Potency": "inconclusive [cytotoxic, partial curve]"}, {"smiles": "CC(C)(C)OC(=O)N1CCC(CC2CC(c3ccc(Cl)cc3)=NO2)(C(=O)NCC2CCCCC2)CC1", "note": "(stereo not given)", "Potency": "inconclusive [cytotoxic, single point]"}, {"smiles": "COc1ccccc1OCC(O)Cn1c(=N)n(Cc2ccccc2)c2ccccc21", "note": "(stereo not given)", "Potency": "inconclusive [cytotoxic, partial curve]"}]}]}
